The values below come from PubChem BioAssay AID463173 (ICCB-Longwood Screening Facility, Harvard Medical School, 2010).

In all, about 52,000 compounds went through this assay and about 1,700 (3.3%) were called active. Cut-off read from the data, not from the text of the source: active = survival mostly below about 52% (no sharp cut-off); inactive = mostly above about 56%. This is one part of the list.

This assay deals with Wild type. Description: S. aureus survival, RN4220 and DeltatarO strains – OD600, teichoic acid synthesis inhibitors, primary screen (AID 463173). The conditions noted are these: S. aureus RN4220 wild type/DeltatarO growth, OD600, 18 h, stronger effect = lower value, screened at 18.75 µg/mL (by protocol).
For `Cn1c(Cc2ccccc2)nnc1SCC#N`, the survival was inactive: 103%. The result for `CCC(C)n1c(SCC(=O)Nc2ccccc2C(=O)OC)nc2ccsc2c1=O` (stereo not given) reads active: -1%; that for `CCOc1ccc(C(=O)N2CC(=O)Nc3ccc(C)cc3C2c2ccc(F)cc2)cc1OCC` (stereo not given), inactive: 88%; that for `CCc1ccc(NC(=O)C2CCCN(S(=O)(=O)c3ccc4c(c3)oc(=O)n4C)C2)cc1` (stereo not given), inactive: 85%. For `COc1cccc(C=Nc2ccc3c(c2)ncn3C)c1OC` the value was inactive: 102%.

On to `COCCCNC(=O)CCCn1c(SCC(=O)c2ccc(Br)cc2)nc2c(sc3ccccc32)c1=O`, for which the survival was inactive: 86%.

Consider `Cc1ccc(C(=O)NCC(c2ccc(Cl)cc2)N2CCCCC2)cc1` (stereo not given), for which the survival is inactive: 84%.

`Cc1ccc(CNc2ccc(N3CCOCC3)cc2)cc1`: the survival is inactive: 104%.

On to `Cc1ccc(Cl)c2sc(NC(=O)c3ccc(S(=O)(=O)N4CCCC4)cc3)nc12`, for which the survival is inactive: 45%. Take `COc1cccc(CNC(=O)c2cccc(N3CCCS3(=O)=O)c2)c1`: the survival was inactive: 85%. For `COC(=O)c1ccc(NC(=O)c2cnn(-c3ccc(Cl)cc3)c2C2CCN(C(=O)OC(C)(C)C)CC2)cc1` the value was inactive: 117%; for `CCc1nn(CC(=O)NCCc2ccc(Cl)cc2)c(=O)c2cc3c(OC)cccc3n12`, inactive: 89%; for `COc1ccccc1C(=O)Nc1cccc(OCc2cc(=O)n3ccccc3n2)c1`, inactive: 87%. Take `Cc1ccc(C)c(NC(=O)CSc2nc3ccccc3nc2N2CCOCC2)c1`: the survival is inactive: 76%. The result for `CCSc1ccccc1C(=O)N1CCN(c2nc3ccccc3s2)CC1` reads inactive: 101%; that for `CC(C)(C)OC(=O)N1CCC(c2c(C(=O)N3CCCCC3)cnn2-c2ccc(F)cc2)CC1`, inactive: 78%; that for `COc1cccc(NC(=O)c2oc3ccc(S(=O)(=O)N(C)C4CCCCC4)cc3c2C)c1`, inactive: 138%.

Take `CCN(CC)C(=O)c1c(NC(=O)c2ccccc2F)sc2c1CCC(C(C)(C)C)C2` (stereo not given): the survival is active: -3%. For `CCc1ccc(-c2nn(-c3ccc(OC)cc3)c3c2cnc2ccc(OC)cc23)cc1` the value was active: 9%. The result for `Cc1cc(C)c(NC(=O)c2cc(C)nc3c2c(C)nn3-c2cccc(F)c2)c(C)c1` reads inactive: 83%; that for `Cc1cc2oc(C(=O)N(Cc3ccc(Cl)cc3)Cc3ccco3)c(C)c2cc1Cl`, inactive: 91%. The result for `CCCn1c(=O)sc2cc(NC(=O)c3ccccc3Cl)ccc21` reads inactive: 71%; that for `COc1cc(NC(=O)CCn2nc(C)cc2C)cc(OC)c1OC`, inactive: 70%.

Turning to `Cc1nn(-c2ccccc2)c2[nH]c(=O)c(CNc3ccccc3)cc12`, the survival is inactive: 111%. For `O=C(CSc1nccn1Cc1ccc2c(c1)OCO2)Nc1ccccc1F` the value was inactive: 89%.
